# The other results are listed elsewhere or left out.
# Legend:
# Assay in all cases: glycan array binding signal (z-score within array); higher = stronger binding
# Conditions in all cases: glycan notation: IUPAC condensed, linker removed
# [1] = target: Neu5Ac(a2-3)Gal(b1-3)]Neu5Ac(a2-3)Gal(b1-4)]GlcNAc
# Procedure, shortened: (§1)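 Columns mapping to the same glycan were averaged after glycan names were converted to IUPAC-condensed notation. The data come from 3228 arrays in the Consortium for Functional Glycomics database, limited to those with an available protein sequence. Binding is reported as a within-array Z-score averaged across arrays of one protein sequence and across linkers.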
# [2] = target: Neu5Ac(a2-3)Gal(b1-4)Glc
# Procedure, shortened: as §1
# [3] = target: Neu5Ac(a2-3)Gal(b1-4)GlcNAc
# Procedure, shortened: as §1
# [4] = target: Neu5Ac(a2-3)Gal(b1-4)GlcNAc(b1-2)Man
# Procedure, shortened: as §1
# [5] = target: Neu5Ac(a2-3)Gal(b1-4)GlcNAc(b1-2)Man(a1-3)[GlcNAc(b1-4)][Neu5Ac(a2-3)Gal(b1-4)GlcNAc(b1-2)Man(a1-6)]Man(b1-4)GlcNAc(b1-4)GlcNAc
# Procedure, shortened: as §1
# [6] = target: Neu5Ac(a2-3)Gal(b1-4)GlcNAc(b1-2)Man(a1-3)[Neu5Ac(a2-3)Gal(b1-4)GlcNAc(b1-2)Man(a1-6)]Man(b1-4)GlcNAc(b1-4)GlcNAc
# Procedure, shortened: as §1
# [7] = target: Neu5Ac(a2-3)Gal(b1-4)GlcNAc(b1-2)Man(a1-3)[Neu5Ac(a2-3)Gal(b1-4)GlcNAc(b1-2)Man(a1-6)]Man(b1-4)GlcNAc(b1-4)[Fuc(a1-6)]GlcNAc
# Procedure, shortened: as §1
# [8] = target: Neu5Ac(a2-3)Gal(b1-4)GlcNAc(b1-2)Man(a1-3)[Neu5Ac(a2-6)Gal(b1-4)GlcNAc(b1-2)Man(a1-6)]Man(b1-4)GlcNAc(b1-4)GlcNAc
# Procedure, shortened: as §1
# [9] = target: Neu5Ac(a2-3)Gal(b1-4)GlcNAc(b1-2)[Neu5Ac(a2-3)Gal(b1-4)GlcNAc(b1-4)]Man(a1-3)[GlcNAc(b1-4)][Neu5Ac(a2-3)Gal(b1-4)GlcNAc(b1-2)[Neu5Ac(a2-3)Gal(b1-4)GlcNAc(b1-6)]Man(a1-6)]Man(b1-4)GlcNAc(b1-4)GlcNAc
# Procedure, shortened: as §1
# [10] = target: Neu5Ac(a2-3)Gal(b1-4)GlcNAc(b1-2)[Neu5Ac(a2-3)Gal(b1-4)GlcNAc(b1-4)]Man(a1-3)[GlcNAc(b1-4)][Neu5Ac(a2-3)Gal(b1-4)GlcNAc(b1-4)Man(a1-6)]Man(b1-4)GlcNAc(b1-4)GlcNAc
# Procedure, shortened: as §1
# [11] = target: Neu5Ac(a2-3)Gal(b1-4)GlcNAc(b1-2)[Neu5Ac(a2-3)Gal(b1-4)GlcNAc(b1-6)]Man(a1-6)[Neu5Ac(a2-3)Gal(b1-4)GlcNAc(b1-2)Man(a1-3)][GlcNAc(b1-4)]Man(b1-4)GlcNAc(b1-4)GlcNAc
# Procedure, shortened: as §1
# [12] = target: Neu5Ac(a2-3)Gal(b1-4)GlcNAc(b1-3)Gal
# Procedure, shortened: as §1
# [13] = target: Neu5Ac(a2-3)Gal(b1-4)GlcNAc(b1-3)Gal(b1-3)GlcNAc
# Procedure, shortened: as §1
# [14] = target: Neu5Ac(a2-3)Gal(b1-4)GlcNAc(b1-3)Gal(b1-4)GlcNAc
# Procedure, shortened: as §1
# [15] = target: Neu5Ac(a2-3)Gal(b1-4)GlcNAc(b1-3)Gal(b1-4)GlcNAc(b1-2)Man(a1-3)[Neu5Ac(a2-3)Gal(b1-4)GlcNAc(b1-3)Gal(b1-4)GlcNAc(b1-2)Man(a1-6)]Man(b1-4)GlcNAc(b1-4)GlcNAc
# Procedure, shortened: as §1
# [16] = target: Neu5Ac(a2-3)Gal(b1-4)GlcNAc(b1-3)Gal(b1-4)GlcNAc(b1-3)Gal(b1-4)GlcNAc
# Procedure, shortened: as §1
# [17] = target: Neu5Ac(a2-3)Gal(b1-4)GlcNAc(b1-3)Gal(b1-4)GlcNAc(b1-3)Gal(b1-4)GlcNAc(b1-2)Man(a1-3)[Neu5Ac(a2-3)Gal(b1-4)GlcNAc(b1-3)Gal(b1-4)GlcNAc(b1-3)Gal(b1-4)GlcNAc(b1-2)Man(a1-6)]GalNAc
# Procedure, shortened: as §1
# [18] = target: Neu5Ac(a2-3)Gal(b1-4)GlcNAc(b1-3)Gal(b1-4)GlcNAc(b1-3)GalNAc
# Procedure, shortened: as §1
# [19] = target: Neu5Ac(a2-3)Gal(b1-4)GlcNAc(b1-3)Gal(b1-4)GlcNAc(b1-3)[Neu5Ac(a2-3)Gal(b1-4)GlcNAc(b1-3)Gal(b1-4)GlcNAc(b1-6)]GalNAc
# Procedure, shortened: as §1
# [20] = target: Neu5Ac(a2-3)Gal(b1-4)GlcNAc(b1-3)Gal(b1-4)GlcNAc(b1-6)[Gal(b1-3)]GalNAc
# Procedure, shortened: as §1
# [21] = target: Neu5Ac(a2-3)Gal(b1-4)GlcNAc(b1-3)Gal(b1-4)[Fuc(a1-3)]GlcNAc
# Procedure, shortened: as §1
# [22] = target: Neu5Ac(a2-3)Gal(b1-4)GlcNAc(b1-3)GalNAc
# Procedure, shortened: as §1
# [23] = target: Neu5Ac(a2-3)Gal(b1-4)GlcNAc(b1-3)[Neu5Ac(a2-3)Gal(b1-4)GlcNAc(b1-6)]GalNAc
# Procedure, shortened: as §1
# [24] = target: Neu5Ac(a2-3)Gal(b1-4)GlcNAc(b1-6)GalNAc
# Procedure, shortened: as §1
# [25] = target: Neu5Ac(a2-3)Gal(b1-4)GlcNAc(b1-6)[Gal(b1-3)]GalNAc
# Procedure, shortened: as §1
# [26] = target: Neu5Ac(a2-3)Gal(b1-4)GlcNAc(b1-6)[Neu5Ac(a2-3)Gal(b1-3)]GalNAc
# Procedure, shortened: as §1
# [27] = target: Neu5Ac(a2-3)Gal(b1-4)GlcNAc6S
# Procedure, shortened: as §1
# [28] = target: Neu5Ac(a2-3)Gal(b1-4)[Fuc(a1-3)]GlcNAc
# Procedure, shortened: as §1
# [29] = target: Neu5Ac(a2-3)Gal(b1-4)[Fuc(a1-3)]GlcNAc(b1-2)Man
# Procedure, shortened: as §1
# [30] = target: Neu5Ac(a2-3)Gal(b1-4)[Fuc(a1-3)]GlcNAc(b1-3)Gal
# Procedure, shortened: as §1
# [31] = target: Neu5Ac(a2-3)Gal(b1-4)[Fuc(a1-3)]GlcNAc(b1-3)Gal(b1-4)GlcNAc
# Procedure, shortened: as §1
# [32] = target: Neu5Ac(a2-3)Gal(b1-4)[Fuc(a1-3)]GlcNAc(b1-3)Gal(b1-4)[Fuc(a1-3)]GlcNAc(b1-3)Gal(b1-4)[Fuc(a1-3)]GlcNAc
# Procedure, shortened: as §1
# [33] = target: Neu5Ac(a2-3)Gal(b1-4)[Fuc(a1-3)]GlcNAc(b1-3)GalNAc
# Procedure, shortened: as §1
# [34] = target: Neu5Ac(a2-3)Gal(b1-4)[Fuc(a1-3)]GlcNAc(b1-6)[Gal(b1-3)]GalNAc
# Procedure, shortened: as §1
# [35] = target: Neu5Ac(a2-3)Gal(b1-4)[Fuc(a1-3)]GlcNAc(b1-6)[Neu5Ac(a2-3)Gal(b1-3)]GalNAc
# Procedure, shortened: as §1
# [36] = target: Neu5Ac(a2-3)Gal(b1-4)[Fuc(a1-3)]GlcNAc6S
# Procedure, shortened: as §1
# [37] = target: Neu5Ac(a2-3)Gal6S(b1-4)GlcNAc
# Procedure, shortened: as §1
# [38] = target: Neu5Ac(a2-3)Gal6S(b1-4)[Fuc(a1-3)]GlcNAc
# Procedure, shortened: as §1
binder,measurement,setting,value
BTL (Bryothamnion triquetrum) (protein) ADPICGSSGYSCTTPAILTPKSPGSFPSGYSKVIVTGVGGSYSVYIHRPDGFKVYKASEGGCASFGSYSGGGNSEVGKYGSGGTVVAVACK,glycan array binding signal (z-score),[1],-0.243
same,glycan array binding signal (z-score),[2],-0.124
same,glycan array binding signal (z-score),[3],-0.268
same,glycan array binding signal (z-score),[4],-0.143
same,glycan array binding signal (z-score),[5],-0.237
same,glycan array binding signal (z-score),[6],-0.251
same,glycan array binding signal (z-score),[7],5.15
same,glycan array binding signal (z-score),[8],-0.243
same,glycan array binding signal (z-score),[9],-0.214
same,glycan array binding signal (z-score),[10],-0.251
same,glycan array binding signal (z-score),[11],-0.271
same,glycan array binding signal (z-score),[12],-0.266
same,glycan array binding signal (z-score),[13],-0.25
same,glycan array binding signal (z-score),[14],-0.232
same,glycan array binding signal (z-score),[15],-0.197
same,glycan array binding signal (z-score),[16],-0.312
same,glycan array binding signal (z-score),[17],-0.145
same,glycan array binding signal (z-score),[18],-0.183
same,glycan array binding signal (z-score),[19],-0.207
same,glycan array binding signal (z-score),[20],-0.195
same,glycan array binding signal (z-score),[21],-0.216
same,glycan array binding signal (z-score),[22],-0.235
same,glycan array binding signal (z-score),[23],-0.188
same,glycan array binding signal (z-score),[24],-0.284
same,glycan array binding signal (z-score),[25],-0.212
same,glycan array binding signal (z-score),[26],-0.271
same,glycan array binding signal (z-score),[27],-0.16
same,glycan array binding signal (z-score),[28],-0.275
same,glycan array binding signal (z-score),[29],-0.28
same,glycan array binding signal (z-score),[30],-0.25
same,glycan array binding signal (z-score),[31],-0.176
same,glycan array binding signal (z-score),[32],-0.251
same,glycan array binding signal (z-score),[33],-0.261
same,glycan array binding signal (z-score),[34],-0.156
same,glycan array binding signal (z-score),[35],-0.151
same,glycan array binding signal (z-score),[36],-0.238
same,glycan array binding signal (z-score),[37],-0.269
same,glycan array binding signal (z-score),[38],-0.29
